PubChem BioAssay AID1346428 (National Center for Advancing Translational Sciences (NCATS), 2018)
“And” between values parts separate entries of the source, which are not always exact repeats. Equal entries are not always repeated. The whole screen tested about 48,000 compounds, of which about 1,200 (2.5%) were called active. Another 2% or so got no clear call; they are omitted.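 The calls were made as follows: active = activation of at least 60% and not above a set upper limit (about 1 call in 100 departs from these limits); inconclusive = activation of 40% to 60%, or above that upper limit; inactive = activation under 40%.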 Some of the results follow.

What follows are molecules tested against Probable G-protein coupled receptor 32 (Homo sapiens) (UniProt O75388) (assay: qHTS for Agonists of Human Resolvin D1 Receptor DRV1). Settings: CHO-K1 GPR32 beta-arrestin PathHunter luminescence, 90 min; at 76.9 µM; stronger effect = higher value; zero percent set by DMSO-only wells.
Method in brief: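 PathHunter beta-arrestin recruitment in CHO-K1 cells stably expressing ProLink-tagged GPR32. Cells were exposed to compound for 90 min at 37 C, then chemiluminescence was read after 1 h detection at ambient temperature; DMSO served as basal control.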
Also: 0% is about no effect.

Chain of UniProt O75388 (O75388 whole entry, looked up): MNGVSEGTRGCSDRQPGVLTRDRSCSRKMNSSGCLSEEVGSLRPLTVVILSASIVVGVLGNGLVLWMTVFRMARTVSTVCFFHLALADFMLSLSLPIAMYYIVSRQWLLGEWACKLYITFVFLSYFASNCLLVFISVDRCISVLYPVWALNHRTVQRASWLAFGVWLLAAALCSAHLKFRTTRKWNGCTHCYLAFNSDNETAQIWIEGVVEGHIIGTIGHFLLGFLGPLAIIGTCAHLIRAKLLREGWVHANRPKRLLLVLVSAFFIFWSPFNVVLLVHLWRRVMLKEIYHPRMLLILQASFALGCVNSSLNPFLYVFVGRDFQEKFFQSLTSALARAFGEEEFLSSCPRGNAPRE

activation, active:
O=C1OC(C(=O)Nc2ccc(Cl)c(C(F)(F)F)c2)Cc2ccccc21 (centres undefined) 80%

activation, inactive:
COc1ccc(NC(=O)CSc2oc(-c3cccs3)nc2S(=O)(=O)c2ccccc2)c(OC)c1 12.2%
Cc1ccc(Cl)cc1N1CCN(C(=O)CCS(=O)(=O)c2cc(Br)cc3c2N(C(=O)C2CC2)CC3)CC1 -16.8%
Cc1ccc(N2CC(NC(=O)c3ccccc3C(F)(F)F)CC2=O)cc1C (centres undefined) -2.07%
COc1ccc(Cl)cc1S(=O)(=O)Nc1ccc2[nH]c(=O)[nH]c2c1 -9.44%
Clc1ccc2c(c1)-n1cc(-c3ccccc3)nc1CO2 14.5%
CCc1ccc(S(=O)(=O)c2cn(Cc3ccccc3)c3cc(N4CCCC4)c(F)cc3c2=O)cc1 3.4%
O=C(Nc1ccc(C(=O)OCc2cc(=O)n3nc(C4CC4)sc3n2)cc1)c1ccccc1 -6.18%
Cc1ccc(CCNC(=O)Cn2c(-c3cccs3)cc3ccccc32)cc1 -9.83%
Cc1cccc(CNC(=O)c2cc3cc(S(=O)(=O)N4CCCCC4)ccc3n2C)c1 -13.5%
COc1cc(NC(=O)CCN2CCN(CCO)CC2)cc(OC)c1 5.4%
COc1cc(CN(C(=O)COc2ccc(F)cc2)c2ccccn2)cc(OC)c1OC -10.4%
CCOc1ccc(OCC(=O)Nc2ccc(S(=O)(=O)Nc3cc(C)on3)cc2)cc1 1.06%
Cc1ccc(C)c(N2CCN(C(=O)c3cc(C)nc4c3c(C)nn4-c3ccccc3)CC2)c1 -23.1%
CCCc1cc(=O)n2[nH]c(NCc3c(F)cccc3Cl)nc2n1 5.34%
CCc1nn(CC(=O)NCCc2ccc(SC)cc2)c(=O)c2cc3sccc3n12 -7.85%
Cc1nc2cc(-c3cccc(F)c3)nn2c(C)c1CCC(=O)NCCc1ccccc1 29.6%
COc1ccc(N2CCN(S(=O)(=O)c3ccc4c(c3)C(C(C)C)C(=O)N4)CC2)cc1 (centres undefined) 5.94%
CCOC(=O)COc1ccc(-c2nnn(CC(=O)Nc3ccccc3)n2)cc1 -4.25%
Cc1ccc(NC(=O)c2ccc(=O)n(CC(=O)Nc3ccccc3)n2)cc1 -5.28%
Cc1sc2c(c1C)c(=O)n(CCc1ccccc1)c(=O)n2Cc1ccc(C(C)(C)C)cc1 12.4%
Cc1ccc(C)c(NC(=O)C2CCN(S(=O)(=O)c3c(C)noc3/C=C/c3cccs3)CC2)c1 -22.2%
Cn1c(/C(C#N)=C/c2ccccc2Br)nc2ccccc21 -34.1%
CCn1c(CNC(=O)c2ccc(OC)cc2)nnc1SCC(=O)Nc1cc(C)ccc1C 6.04%
CCc1c(C)c2ccc(O)c(CN3CCN(c4ccc(F)cc4)CC3)c2oc1=O 0.573%
COc1ccccc1C(=O)NCc1nc2cccnc2n1Cc1ccc(F)cc1 -16.9%
CCc1cccc(NS(=O)(=O)c2ccc3c(c2)CC(C)N3C(=O)C2CC2)c1 (centres undefined) 12.8%
COc1ccc(S(=O)(=O)N2Cc3ccccc3CC2C(=O)Nc2cc(Cl)ccc2Cl)cc1 (centres undefined) -0.616%
COc1ccc(Cl)cc1NC(=O)CSc1nccn1-c1ccc(Cl)cc1 -7.59%
CCOCN(C(=O)Cn1c(COC)nc2ccccc21)c1c(C)cccc1CC -1.35%
COc1ccccc1CNC(=O)c1ccc(N2Cc3cccc(OC)c3Oc3ncccc32)s1 -1.42%
COc1ccc(-c2noc(-c3ccc(N4CCCCC4C)c([N+](=O)[O-])c3)n2)cc1OC (centres undefined) 10.7%
CC(C)(C)OC(=O)N1CCC(c2nnc(SCc3ccccc3)o2)CC1 17.5%
Cc1cc(NC(=O)COc2ccccc2)cc(-c2nc3ccccc3o2)c1O -7.92%
CCCN1C(=O)C(Cc2nc3ccccc3c(=O)n2-c2cccc(C)c2)c2ccccc21 (centres undefined) -28.2%
Cn1ncc(C(=O)N2CCN(c3ccc(F)cc3)CC2)c1C1CCN(C(=O)OC(C)(C)C)CC1 -11.9%
CCCn1c(-c2cccc(Br)c2)nc2ccccc21 43.5%
Cc1cc(C)cc(NC(=O)C2CCCN2S(=O)(=O)c2cccc3nsnc23)c1 (centres undefined) -5.59%
Cc1ccc(C2=CC(c3c(F)cccc3Cl)n3ncnc3N2)cc1C (centres undefined) 20%
O=C(CSc1nnc2[nH]c(=O)cc(-c3ccccc3)n12)Nc1ccc(F)cc1F 2.36%
COc1cccc(C2C(C(=O)Nc3ccccc3)=C(C)Nc3nc(-c4ccccc4)nn32)c1OC (centres undefined) -12.3%
CCOC(=O)c1ccc(CN(Cc2ccccc2C)S(=O)(=O)c2ccc(C(C)(C)C)cc2)cc1 -28.2%
Cc1ccc(C(=O)n2nc(C)c(S(=O)(=O)N3CCCCCC3)c2C)cc1 -5.81%
Cc1ccc(C)c(CN2CCC(CNC(=O)c3cc4ccc5cccnc5c4[nH]3)CC2)c1 2.34%
COc1ccc(CNc2nc3c(c(=O)n(C)c(=O)n3C)n2Cc2ccccc2Cl)cc1 -12.7%
COc1ccc(C)cc1NC(=O)c1ccc2c(c1)CCN2S(=O)(=O)c1ccc(Cl)cc1 -10.3%
Cc1cccc(-c2noc(-c3ccc(N4CCN(C)CC4)c([N+](=O)[O-])c3)n2)c1 0.421%
CCOc1ccc(C2C(=O)N(C3CCCCC3)CC(=O)N2C2CCCC2)cc1OC (centres undefined) -15.6%
COc1cc(NC(=O)Cc2c(C(=O)O)c(C)cn2C)cc(OC)c1 -5.18%
Cc1ccc2c(c1)N(C(=O)N1CCC(C(=O)NC3CCCCCC3)CC1)CC(C)O2 (centres undefined) -3.06%
COc1ccc(/C=C/C(=O)Nc2sc3c(c2C(N)=O)CCC(C)C3)cc1OC (centres undefined) 33.6%
CNC(=O)c1ccc(Nc2nnc(-c3ccc(C)c(S(=O)(=O)N4CCCCC4)c3)c3ccccc23)cc1 3%
Cc1ccc(-n2ncc3c(N4CCN(C)CC4)ncnc32)cc1Cl -3.49%
CCOc1ccc(NC(=O)CCS(=O)(=O)c2cccc3nonc23)cc1 37.1%
CCOC(=O)c1c(NC(=O)c2cc(C)on2)sc(C)c1C -6.01%
COc1ccc(CNC(=O)CCC(=O)N2CC3CCCN3c3ccccc32)c(OC)c1 (centres undefined) 11.4%
Cc1cc(C)cc(OCc2ccc(C(=O)Nc3ccccc3F)o2)c1 16.7%
CCc1cccc(NC(=O)CSc2ncccc2C(=O)Oc2ccccc2Cl)c1 -29.6%
Cc1cc(C)c2c(=O)cc(C(=O)Nc3sc4c(c3C(=O)NCc3cccnc3)CCCC4)oc2c1 -5.38%
CC(C)C12CN3CC(C(C)C)(CN(C1)C3c1ccc(OCc3ccccc3)cc1)C2=O (centres undefined) 2.77%
CC(C)n1c(SCC(=O)Nc2ccc(F)cc2)nc2c(oc3ccccc32)c1=O -22.9%
CCOc1ccccc1CNC(=O)c1ccc2c(c1)sc1nc(-c3cccc(OC)c3)cn12 -10.6%
CCC(Sc1nc2nccnc2c(=O)n1Cc1ccc(OC)cc1)C(=O)NC1CCCCC1 (centres undefined) -13.1%
CCOc1ccc(-n2c(SCC(=O)Nc3ccc(F)cc3)nc3c([nH]c4ccccc43)c2=O)cc1 3.62%
COC(=O)c1cc(S(=O)(=O)NCC2CCN(Cc3ccc(C)cc3)CC2)c[nH]1 -25.4%
CC(=O)c1cccc(NC(=O)c2ccc(-n3c(C)nnc3C)cc2)c1 -5.09%
Cc1ccc(CN2CCc3nc(N4CCN(C)CC4)ncc3C2)s1 -23.7%
CC(C)(C)CC(=O)NC1CC(=O)N(c2ccc3c(c2)OCCO3)C1 (centres undefined) 36.5%
O=C(c1ccc2c(c1)N(Cc1ccccc1F)C(=O)c1ccccc1S2=O)N1CCOCC1 (centres undefined) -9.63%
CC(=O)O[C@@H]1CC2C3CCc4cc(OC(=O)c5ccccc5)ccc4C3CCC2(C)[C@H]1OC(C)=O (some centres undefined) 3.62%
Cc1ccc(-n2ncc3c(N4CCC(Cc5ccccc5)CC4)ncnc32)cc1 -4.95%
Cc1c(Cl)cccc1NC(=O)Cn1cnc2nc3c(cc2c1=O)CCCC3 -4.37%
O=C(NCC1CCCO1)c1c[nH]c2ccc(S(=O)(=O)Nc3cccc(C(F)(F)F)c3)cc2c1=O (centres undefined) -10.3%
CCc1ccc(C(=O)c2cn(CC(=O)Nc3ccc(C)c(C)c3)c3ccccc3c2=O)cc1 5.09%
Cc1cccc(N(C)C(=O)CSc2nc3ncccc3o2)c1 -4.82%
Cc1ccc2c(c1)cc1c(=O)n(CC(=O)N3CCCCC3)nc(C)n12 -0.0741%
CN(Cc1ccccc1)S(=O)(=O)c1nnc(NC(=O)c2ccccc2)s1 24.8%
COc1ccc2c(c1)c1c(c(=O)n(-c3ccccc3)c(=O)n1CC(=O)Nc1ccc(C)c(C)c1)n2C 2.15%
CCN(CC)c1ncnc2c1ncn2[C@@H]1O[C@H](COP(=O)(O)OP(=O)(O)C(Br)(Br)P(=O)(O)O)[C@@H](O)[C@H]1O 3.79%
N#Cc1ccc(CSc2nc3c(c(=O)[nH]2)CCCC3)cc1 2.23%
CC(/C=C/c1cccc(Oc2ccc(F)cc2)c1)N(O)C(N)=O (centres undefined) -6.05%
O=c1c(O)c(-c2ccc(O)cc2O)oc2cc(O)cc(O)c12 -1.65%
COc1ccc(C2CNC(=O)C2)cc1OC1CCCC1 (centres undefined) -12% and -2.11%
O=C(Nc1c(C(=O)Nc2ccccc2F)oc2ccccc12)c1cc2ccccc2o1 8.51%
